# PubChem BioAssay AID504832 (National Center for Advancing Translational Sciences (NCATS), 2011)
# Screen size: about 310,000 compounds; about 18,000 (5.8%) were called active. Inconclusive results, whose numbers are uncertain, are shown with a selection of clear calls. The call rests on the fitted dose curve; in most records, active means well fitted inhibition curve with a large enough effect; inconclusive means small, poorly fitted or top-dose-only effect, or another doubt; inactive means no such curve, though single readings can be large or run the other way. No potency is given beside an inconclusive call; the fits are too rough.
# Assay: Primary qHTS for delayed death inhibitors of the malarial parasite plastid, 48 hour incubation
# Details: P. falciparum luciferase growth in erythrocytes; series mostly up to 28.7 µM
# Summary of the method: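 Luciferase-expressing P. falciparum in infected erythrocytes (2% hematocrit, 0.1% parasitemia final) in RPMI 1640/0.5% Albumax were exposed to compound for 48 hours at 37 C, 5% CO2; growth read as luminescence.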
# Potency means the concentration at half of the fitted maximal effect; tags describe the fitted curve by direction and shape.
row,SMILES,Potency
1,CC(C)OCc1c(C(=O)Nc2nccs2)oc2ccccc12,"inconclusive [inhibitor, single point]"
2,O=C1CC(c2ccc(F)cc2)c2cc3c(cc2N1)CCC3 (stereo not given),active: 14.7 µM
3,COc1cc(OC)cc(C(=O)NCC(=O)NCCN2C(=O)S/C(=C\c3ccccc3Cl)C2=O)c1,"inconclusive [inhibitor, single point]"
4,COc1cc(SC)ccc1C(=O)N(CC(=O)Nc1ccccc1Br)Cc1ccco1,"inconclusive [inhibitor, partial curve]"
5,Cc1ccc(C)c(Nc2nc(-c3cccnc3)cs2)c1,"inconclusive [inhibitor, partial curve]"
6,CCN(CC)S(=O)(=O)c1ccc(OC(C)C)nc1,"inconclusive [inhibitor, single point]"
7,Cc1oc2c(cc(NS(=O)(=O)c3ccc4c5c(cccc35)C(=O)N4)c3ccccc32)c1C(=O)OC(C)C,"inconclusive [inhibitor, partial curve, poor fit]"
8,CSC1=NCCN1S(=O)(=O)c1ccc(Cl)cc1,"inconclusive [inhibitor, full curve, poor fit]"
9,Cn1c(N2CCCC2)nc2c1c(=O)n(Cc1ccc(Cl)cc1)c(=O)n2C,"inconclusive [inhibitor, partial curve]"
10,N#Cc1c(OCC(=O)c2ccccc2)nc2c(c1-c1ccco1)CCc1ccccc1-2,"inconclusive [inhibitor, single point]"
11,Cc1ccc(-c2onc3ccc(Br)cc23)cc1,inactive
12,COc1ccc(NC(=O)CSc2nnc(-c3cccc(O)c3)o2)cc1,inactive
13,COc1ccccc1C(=O)Nc1ccc(OCC(=O)N2CCCCC2)cc1,inactive
14,O=C(Nc1ccccc1)C1COc2ccccc2O1 (stereo not given),inactive
15,OCCC1CN(Cc2cnc(-c3cccc4ccccc34)nc2)CCN1C1CCCCC1 (stereo not given),"inconclusive [inhibitor, partial curve]"
16,O=C(NCc1cccs1)c1nc2c(nnn2Cc2ccccc2Cl)c(=O)[nH]1,active: 4.15 µM
17,CN(CC(=O)NCc1ccc(F)cc1)S(=O)(=O)c1ccc2c(c1)n(C)c(=O)c(=O)n2C,"inconclusive [inhibitor, partial curve]"
18,O=c1[nH]c2ccc(S(=O)(=O)Nc3ccc(Br)cc3)cc2[nH]1,inactive
19,Cc1c(/C=N\NC(=O)c2csc3ccccc23)cnn1C,inactive
20,O=C(COc1ccccc1Cl)NCCCNC(=O)c1ccco1,inactive
21,O=C(CN1CCN(CC(=O)Nc2ccccc2Cl)CC1)Nc1ccc2c(c1)OCCO2,"inconclusive [inhibitor, single point]"
22,CCOc1ccc(-c2noc(CCCC(=O)NC3CCCCC3)n2)cc1OC,"inconclusive [inhibitor, partial curve]"
23,CC(C)(O)C#Cc1ccc([C@@H]2C[C@H]3CN(c4ccccc4)C(=O)[C@]34CCCN24)s1,"inconclusive [inhibitor, partial curve, poor fit]"

row,SMILES,Potency
1,CCOC(=O)CC(=O)CSc1nc(N)c(C#N)c(-c2ccc(F)cc2)c1C#N,"inconclusive [inhibitor, single point]"
2,CC(NC(=S)NCc1ccccc1)C12CC3CC(CC(C3)C1)C2 (stereo not given),"inconclusive [inhibitor, single point]"
3,COc1cc(/C=N/NC(=O)COc2ccc([N+](=O)[O-])cc2)ccc1OCC(=O)N1CCOCC1,"inconclusive [inhibitor, partial curve, poor fit]"
4,Nc1cc(Cl)nc(N/N=C/c2ccc([N+](=O)[O-])cc2)n1,"inconclusive [inhibitor, single point]"
5,CCC1(CC)Cc2ccccc2-c2nc(NCCO)[nH]c(=O)c21,"inconclusive [inhibitor, single point]"
6,COc1ccc(C(=O)NCC(=O)OCc2ccc(Cl)cc2Cl)cc1OC,"inconclusive [inhibitor, full curve, poor fit]"
7,CCOCC(=O)Nc1ccc(-c2cn3cccnc3n2)cc1,inactive
8,CC1(C)OC(c2ccccc2)=C/C(=C/C=N/NC(=O)c2ccncc2)O1,"inconclusive [inhibitor, single point]"
9,Cn1c(Sc2ccc(C(F)(F)F)cc2[N+](=O)[O-])nnc1-c1ccccc1,"inconclusive [inhibitor, single point]"
10,NS(=O)(=O)c1ccc(CCNC(=O)C2CCCCC2)cc1,"inconclusive [inhibitor, partial curve, poor fit]"
11,CCN(CC)C(=O)C1CCCN(C(=O)c2cc(COc3ccc4ncccc4c3)on2)C1 (stereo not given),inactive
12,O=C(CCSc1nc(-c2ccco2)cc(C(F)(F)F)n1)N1CCN(c2ccccc2)CC1,"inconclusive [inhibitor, single point]"
13,CC(C(=O)NC1CCCC1)N1CCN(S(=O)(=O)c2ccc(C(C)(C)C)cc2)CC1 (stereo not given),active: 1.47 µM
14,CCOC(=O)c1nc(NCc2cccnc2)c2ccccc2n1,inactive
15,Cc1ccc[n+](CC(=O)c2ccc(Br)cc2)c1,inactive
16,CSc1nc(Oc2ccc3ccccc3c2)c2ccccc2n1,active: 10.4 µM
17,CC1=C(C)/C(=N\OC(=O)/C=C/c2ccccc2)C=CC1=O,active: 10.4 µM
18,COc1ccccc1C1(CC(=O)Nc2nccs2)CCOC(C(C)C)C1 (stereo not given),"inconclusive [inhibitor, partial curve, poor fit]"
19,COc1ccc(C(=O)NC2=Nc3ccccc3N=C(C)C2c2ccccc2)cc1 (stereo not given),"inconclusive [inhibitor, single point]"
20,O=C1C(CSCc2ccccc2)NC(=S)N1c1ccccc1 (stereo not given),"inconclusive [inhibitor, single point]"
21,N/C(Cc1ccc([N+](=O)[O-])cc1)=N\OC(=O)c1ccco1,inactive
22,COc1ccc(/C=C(/NC(=O)c2ccccc2)C(=O)N/N=C/c2ccc3c(c2)OCO3)cc1OC,"inconclusive [inhibitor, single point]"
